Data published in a collection of fitness landscapes (doi:10.1126/science.1257360).
The other results are listed elsewhere or left out.

B1: PhoQ; a variant is named by its letters at X, in order, P23837 (parent)
chain: MKKLLRLFFPLSLRVRFLLATAAVVLVLSLAYGMVALIGYSVSFDKTTFRLLRGESNLFYTLAKWENNKLHVELPENIDKQSPTMTLIYDENGQLLWAQRDVPWLMKMIQPDWLKSNGFHEIEADVNDTSLLLSGDHSIQQQLQEVREDDDDAEMTHSVAVNVYPATSRMPKLTIVVVDTIPVELKSSYMVWSWFIYVLSANLLLVIPLLWVAAWWSLRPIEALAKEVRELEEHNRELLNPATTRELTSLVRNLNRLLKSERERYDKYRTTLTDLTHSLKTPLXXLQXXLRSLRSEKMSVSDAEPVMLEQISRISQQIGYYLHRASMRGGTLLSRELHPVAPLLDNLTSALNKVYQRKGVNISLDISPEISFVGEQNDFVEVMGNVLDNACKYCLEFVEISARQTDEHLYIVVEDDGPGIPLSKREVIFDRGQRVDTLRPGQGVGLAVAREITEQYEGKIVAGESMLGGARMEVIFGRQHSAPKDE

Variants of: B1
Assay: enrichment ratio after two sorts for PhoP signalling (ratio (wild type AVST 3.29)); higher = more functional
Conditions: with PhoP (E. coli)

Variant | enrichment ratio
QPNQ | ≤ 0.25
TAAV | 6.65
SGYH | ≤ 0.25
ERTG | ≤ 0.25
NLSY | ≤ 0.25
ITHS | ≤ 0.25
ECSY | ≤ 0.25
LETE | ≤ 0.25
AFTI | ≤ 0.25
HGTP | ≤ 0.25
GSWC | ≤ 0.25
FEAC | ≤ 0.25
AYVW | ≤ 0.25
FVPQ | ≤ 0.25
FAEH | ≤ 0.25
YSPA | ≤ 0.25
DHVE | ≤ 0.25
GDDN | ≤ 0.25
SVND | ≤ 0.25
MMHV | ≤ 0.25
MNTG | ≤ 0.25
NEVE | ≤ 0.25
VTVR | ≤ 0.25
PYMM | ≤ 0.25
SFFG | ≤ 0.25

Variant | enrichment ratio
NHDH | ≤ 0.25
FAFD | ≤ 0.25
LLDQ | ≤ 0.25
SVFV | ≤ 0.25
ELFR | ≤ 0.25
DACK | ≤ 0.25
DTHP | ≤ 0.25
IIFS | ≤ 0.25
NKFN | ≤ 0.25
FRCQ | ≤ 0.25
YPHC | ≤ 0.25
QVWC | ≤ 0.25
NGDA | ≤ 0.25
FLYH | ≤ 0.25
SKWN | ≤ 0.25
KFTK | ≤ 0.25
LARN | ≤ 0.25
QLFM | ≤ 0.25
FISH | ≤ 0.25
YTFP | ≤ 0.25
WMCR | ≤ 0.25
WTHS | ≤ 0.25
LCSP | ≤ 0.25
FCCD | ≤ 0.25
YLPA | ≤ 0.25

Variant | enrichment ratio
RHNT | ≤ 0.25
AKCF | 1.73
RHWE | ≤ 0.25
WGHR | ≤ 0.25
KCKH | ≤ 0.25
YYDE | ≤ 0.25
LYGV | ≤ 0.25
HCTI | ≤ 0.25
NWII | ≤ 0.25
ESEY | ≤ 0.25
NYKS | ≤ 0.25
ELGW | ≤ 0.25
EGEI | ≤ 0.25
RVVT | ≤ 0.25
SCIM | 3.17
YPSQ | ≤ 0.25
FYDF | ≤ 0.25
ALYA | ≤ 0.25
EDNT | ≤ 0.25
HETP | ≤ 0.25
PVEA | ≤ 0.25
WMKH | ≤ 0.25
YCAP | ≤ 0.25
NGPY | ≤ 0.25
YQMV | ≤ 0.25

Variant | enrichment ratio
HDFC | ≤ 0.25
TVIL | ≤ 0.25
TFQE | ≤ 0.25
SQPE | ≤ 0.25
SGYE | ≤ 0.25
DFFA | ≤ 0.25
MASP | ≤ 0.25
HYMR | ≤ 0.25
DPWP | ≤ 0.25
DEIC | ≤ 0.25
TIKK | ≤ 0.25
QIGG | 6.19
HLMP | ≤ 0.25
YWFF | ≤ 0.25
KLNH | ≤ 0.25
WMVV | ≤ 0.25
AQPK | ≤ 0.25
QFVP | ≤ 0.25
SPLM | ≤ 0.25
PSMM | ≤ 0.25
LCTK | ≤ 0.25
SAVV | 3.14
GNLG | 5.07
WSCN | ≤ 0.25
KSRD | ≤ 0.25

Variant | enrichment ratio
HSST | ≤ 0.25
YQNP | ≤ 0.25
HIKH | ≤ 0.25
KDAH | ≤ 0.25
MMET | ≤ 0.25
VDVY | ≤ 0.25
KPNH | ≤ 0.25
RGVC | ≤ 0.25
QFTA | ≤ 0.25
ARCV | 2.86
LINI | ≤ 0.25
MRSR | ≤ 0.25
NYDM | ≤ 0.25
VRNE | ≤ 0.25
DIGD | ≤ 0.25
LGHE | ≤ 0.25
AFFF | ≤ 0.25
VCFI | ≤ 0.25
HSMD | ≤ 0.25
GSKH | ≤ 0.25
IHDR | ≤ 0.25
WHAQ | ≤ 0.25
NRNC | ≤ 0.25
RHTN | ≤ 0.25
PNRN | ≤ 0.25

Variant | enrichment ratio
FRMW | ≤ 0.25
LHYW | ≤ 0.25
CLLY | ≤ 0.25
ANWN | ≤ 0.25
MCHG | ≤ 0.25
SYKK | ≤ 0.25
MLSA | ≤ 0.25
QFYI | ≤ 0.25
NNTG | ≤ 0.25
ETSS | ≤ 0.25
DGID | ≤ 0.25
NEMS | ≤ 0.25
PHQG | ≤ 0.25
YLGR | ≤ 0.25
RRCE | ≤ 0.25
VKLP | ≤ 0.25
VWLE | ≤ 0.25
LWCP | ≤ 0.25
PEVR | ≤ 0.25
NTRN | ≤ 0.25
DLMD | ≤ 0.25
WYIW | ≤ 0.25
SPDI | ≤ 0.25
FILQ | 11.5
MQNC | ≤ 0.25

Variant | enrichment ratio
FHCG | ≤ 0.25
KDHC | ≤ 0.25
NYKC | ≤ 0.25
FHSA | ≤ 0.25
VYNC | ≤ 0.25
FDRN | ≤ 0.25
YWVR | ≤ 0.25
DKIW | ≤ 0.25
YILP | ≤ 0.25
ACYP | 2.64
LCRW | ≤ 0.25
KFCS | ≤ 0.25
LDYL | ≤ 0.25
RGSK | ≤ 0.25
AGLI | 9.21
MKDD | ≤ 0.25
HKAV | ≤ 0.25
IYMC | ≤ 0.25
VWLV | ≤ 0.25
MDLP | ≤ 0.25
WPWM | ≤ 0.25
PFHY | ≤ 0.25
GQGI | ≤ 0.25
QDFN | ≤ 0.25
LGPF | ≤ 0.25

Variant | enrichment ratio
MAVV | ≤ 0.25
YWDE | ≤ 0.25
KFNF | ≤ 0.25
MFTN | ≤ 0.25
RIDE | ≤ 0.25
AWRW | ≤ 0.25
IYQG | ≤ 0.25
FKCN | ≤ 0.25
TYNE | ≤ 0.25
DNTN | ≤ 0.25
QCIV | ≤ 0.25
MHKM | ≤ 0.25
DWVE | ≤ 0.25
VVGA | ≤ 0.25
WDPM | ≤ 0.25
NFTP | ≤ 0.25
RQNP | ≤ 0.25
PVDC | ≤ 0.25
LPMI | ≤ 0.25
GQAF | ≤ 0.25
